Results taken from publication PMC9663162.
Results are given in words; binding and its absence hold for the method and conditions named. For part of these data: In cells and extracts the contact can be indirect. Some entries that bind do so weakly or less than the wild type. For part of these data: Sequences can lack the tags named with a protein. One block for each molecule: values may come before it.

By UniProt entry, the sequences of proteins in these tests, tags left out. Where a name states a change or a piece, a line headed by the entry shows the natural chain unless it says otherwise. Chains listed by the source or under a name are the forms on record and can include a tag or linker. Residues count along the entry.
UniProt Q8N109: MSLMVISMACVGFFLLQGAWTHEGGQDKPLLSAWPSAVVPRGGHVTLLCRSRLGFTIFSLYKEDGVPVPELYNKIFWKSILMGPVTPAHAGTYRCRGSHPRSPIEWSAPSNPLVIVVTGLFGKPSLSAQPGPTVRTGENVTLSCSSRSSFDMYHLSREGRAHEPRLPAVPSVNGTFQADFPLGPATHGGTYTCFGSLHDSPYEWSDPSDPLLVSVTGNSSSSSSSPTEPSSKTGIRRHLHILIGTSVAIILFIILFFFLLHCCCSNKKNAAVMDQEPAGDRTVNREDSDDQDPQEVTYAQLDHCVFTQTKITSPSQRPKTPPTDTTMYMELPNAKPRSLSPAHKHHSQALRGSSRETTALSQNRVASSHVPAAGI
KIR2DL5 (KIR2DL5A*001) expressed on 3T3 cells: residues 22-375 of Q8N109
KIR2DL5 Y298F (ITIM tyrosine mutant) transduced into primary NK cells (Q8N109, form named): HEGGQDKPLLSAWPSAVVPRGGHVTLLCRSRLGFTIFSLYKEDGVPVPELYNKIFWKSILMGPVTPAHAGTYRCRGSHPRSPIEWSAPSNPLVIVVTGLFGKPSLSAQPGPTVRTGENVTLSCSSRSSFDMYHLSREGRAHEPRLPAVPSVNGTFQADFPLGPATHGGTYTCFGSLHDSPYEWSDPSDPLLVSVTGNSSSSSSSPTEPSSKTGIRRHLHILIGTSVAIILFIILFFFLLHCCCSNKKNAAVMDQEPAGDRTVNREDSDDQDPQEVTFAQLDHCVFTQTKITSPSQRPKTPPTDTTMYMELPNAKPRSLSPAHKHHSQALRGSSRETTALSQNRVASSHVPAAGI
KIR2DL5 Y328F (ITSM tyrosine mutant) transduced into primary NK cells (Q8N109, form named): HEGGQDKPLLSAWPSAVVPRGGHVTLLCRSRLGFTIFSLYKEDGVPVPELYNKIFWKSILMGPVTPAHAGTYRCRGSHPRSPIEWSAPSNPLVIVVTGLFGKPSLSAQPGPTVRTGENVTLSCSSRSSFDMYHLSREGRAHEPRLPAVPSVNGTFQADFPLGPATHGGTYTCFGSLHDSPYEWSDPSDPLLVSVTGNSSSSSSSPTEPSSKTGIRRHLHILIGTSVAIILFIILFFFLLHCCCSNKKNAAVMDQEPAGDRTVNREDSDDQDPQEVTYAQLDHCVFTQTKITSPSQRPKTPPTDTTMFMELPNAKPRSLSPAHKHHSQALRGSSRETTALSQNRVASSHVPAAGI
KIR2DL5 D0 domain variant G97S expressed on 3T3 cells (Q8N109, form named): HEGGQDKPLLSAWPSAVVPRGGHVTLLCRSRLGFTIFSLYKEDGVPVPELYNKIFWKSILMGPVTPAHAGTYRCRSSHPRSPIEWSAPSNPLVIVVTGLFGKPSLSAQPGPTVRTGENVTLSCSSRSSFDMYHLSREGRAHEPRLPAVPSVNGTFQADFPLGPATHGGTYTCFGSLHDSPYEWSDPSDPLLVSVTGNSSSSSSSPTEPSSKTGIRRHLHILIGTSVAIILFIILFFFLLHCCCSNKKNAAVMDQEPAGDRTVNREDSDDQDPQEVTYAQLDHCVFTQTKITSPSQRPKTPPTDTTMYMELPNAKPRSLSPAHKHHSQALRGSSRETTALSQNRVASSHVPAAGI
KIR2DL5 D0 domain variant P112S expressed on 3T3 cells (Q8N109, form named): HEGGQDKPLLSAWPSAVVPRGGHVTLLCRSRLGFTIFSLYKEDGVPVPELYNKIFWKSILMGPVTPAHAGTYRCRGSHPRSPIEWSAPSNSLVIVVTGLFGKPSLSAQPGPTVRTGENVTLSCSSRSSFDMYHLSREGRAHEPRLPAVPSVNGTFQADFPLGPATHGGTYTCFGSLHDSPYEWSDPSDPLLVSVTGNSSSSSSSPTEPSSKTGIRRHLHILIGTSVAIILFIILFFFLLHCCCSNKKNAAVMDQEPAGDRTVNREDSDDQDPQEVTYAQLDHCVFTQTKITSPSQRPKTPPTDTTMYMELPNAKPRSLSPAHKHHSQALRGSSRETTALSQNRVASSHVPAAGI
KIR2DL5 D0 domain variant R52H expressed on 3T3 cells (Q8N109, form named): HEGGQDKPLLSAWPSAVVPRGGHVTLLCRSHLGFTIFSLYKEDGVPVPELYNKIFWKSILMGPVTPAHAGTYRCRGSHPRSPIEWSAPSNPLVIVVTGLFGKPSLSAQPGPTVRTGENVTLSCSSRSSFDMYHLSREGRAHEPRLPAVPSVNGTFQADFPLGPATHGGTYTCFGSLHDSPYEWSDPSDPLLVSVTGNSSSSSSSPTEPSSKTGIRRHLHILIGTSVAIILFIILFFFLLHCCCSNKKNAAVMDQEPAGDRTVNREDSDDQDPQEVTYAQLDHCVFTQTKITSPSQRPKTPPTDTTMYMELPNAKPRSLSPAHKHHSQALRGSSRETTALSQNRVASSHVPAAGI
KIR2DL5 D0 domain variant T46S expressed on 3T3 cells (Q8N109, form named): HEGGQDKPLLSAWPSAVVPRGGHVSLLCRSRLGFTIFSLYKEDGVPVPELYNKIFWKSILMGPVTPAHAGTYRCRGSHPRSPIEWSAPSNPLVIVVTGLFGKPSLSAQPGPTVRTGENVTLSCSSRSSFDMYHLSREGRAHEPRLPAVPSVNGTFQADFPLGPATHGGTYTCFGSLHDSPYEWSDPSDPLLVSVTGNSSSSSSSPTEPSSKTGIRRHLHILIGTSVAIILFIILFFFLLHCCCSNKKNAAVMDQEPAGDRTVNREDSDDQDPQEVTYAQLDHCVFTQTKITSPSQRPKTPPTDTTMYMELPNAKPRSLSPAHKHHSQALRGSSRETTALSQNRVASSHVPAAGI
KIR2DL5A*005 expressed on 3T3 cells (Q8N109, form named): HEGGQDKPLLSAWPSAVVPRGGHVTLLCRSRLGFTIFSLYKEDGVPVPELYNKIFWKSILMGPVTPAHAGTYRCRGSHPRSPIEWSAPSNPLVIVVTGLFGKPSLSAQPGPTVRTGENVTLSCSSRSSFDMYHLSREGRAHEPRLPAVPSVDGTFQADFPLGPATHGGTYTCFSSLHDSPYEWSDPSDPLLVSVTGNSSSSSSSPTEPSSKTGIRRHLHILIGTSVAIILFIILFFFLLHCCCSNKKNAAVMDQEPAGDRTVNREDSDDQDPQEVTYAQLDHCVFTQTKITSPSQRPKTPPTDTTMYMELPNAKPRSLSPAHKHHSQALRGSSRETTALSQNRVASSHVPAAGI
UniProt Q99706, residues 22-377: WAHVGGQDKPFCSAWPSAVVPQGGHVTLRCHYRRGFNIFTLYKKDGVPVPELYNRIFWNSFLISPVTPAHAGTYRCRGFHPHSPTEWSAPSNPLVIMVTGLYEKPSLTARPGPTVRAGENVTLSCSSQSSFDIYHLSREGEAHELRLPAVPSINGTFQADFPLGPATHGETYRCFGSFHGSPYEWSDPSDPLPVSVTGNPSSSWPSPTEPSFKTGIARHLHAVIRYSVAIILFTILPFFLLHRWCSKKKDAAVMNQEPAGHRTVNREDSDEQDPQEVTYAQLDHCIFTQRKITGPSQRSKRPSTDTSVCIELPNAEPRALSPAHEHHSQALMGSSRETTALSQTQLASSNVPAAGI
UniProt Q8N743, residues 26-410: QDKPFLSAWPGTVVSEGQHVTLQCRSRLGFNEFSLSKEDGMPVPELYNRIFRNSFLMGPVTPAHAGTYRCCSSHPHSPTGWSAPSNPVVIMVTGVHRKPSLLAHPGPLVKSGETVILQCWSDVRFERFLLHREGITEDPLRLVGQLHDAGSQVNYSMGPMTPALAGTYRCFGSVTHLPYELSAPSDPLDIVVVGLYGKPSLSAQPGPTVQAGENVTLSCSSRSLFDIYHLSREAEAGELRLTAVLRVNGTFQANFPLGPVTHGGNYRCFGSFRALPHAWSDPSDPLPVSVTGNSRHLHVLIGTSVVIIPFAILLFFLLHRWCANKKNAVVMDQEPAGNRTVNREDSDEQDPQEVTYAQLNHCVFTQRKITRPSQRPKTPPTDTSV
UniProt Q92692, residues 32-360: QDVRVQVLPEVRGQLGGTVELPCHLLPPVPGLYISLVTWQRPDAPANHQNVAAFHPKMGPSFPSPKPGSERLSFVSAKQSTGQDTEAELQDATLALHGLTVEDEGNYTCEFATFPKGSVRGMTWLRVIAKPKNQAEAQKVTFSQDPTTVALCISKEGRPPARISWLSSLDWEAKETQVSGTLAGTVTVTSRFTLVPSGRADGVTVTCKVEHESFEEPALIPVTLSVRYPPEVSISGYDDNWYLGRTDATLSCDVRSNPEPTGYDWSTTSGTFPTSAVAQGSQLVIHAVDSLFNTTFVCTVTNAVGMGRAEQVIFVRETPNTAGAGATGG
UniProt P29350: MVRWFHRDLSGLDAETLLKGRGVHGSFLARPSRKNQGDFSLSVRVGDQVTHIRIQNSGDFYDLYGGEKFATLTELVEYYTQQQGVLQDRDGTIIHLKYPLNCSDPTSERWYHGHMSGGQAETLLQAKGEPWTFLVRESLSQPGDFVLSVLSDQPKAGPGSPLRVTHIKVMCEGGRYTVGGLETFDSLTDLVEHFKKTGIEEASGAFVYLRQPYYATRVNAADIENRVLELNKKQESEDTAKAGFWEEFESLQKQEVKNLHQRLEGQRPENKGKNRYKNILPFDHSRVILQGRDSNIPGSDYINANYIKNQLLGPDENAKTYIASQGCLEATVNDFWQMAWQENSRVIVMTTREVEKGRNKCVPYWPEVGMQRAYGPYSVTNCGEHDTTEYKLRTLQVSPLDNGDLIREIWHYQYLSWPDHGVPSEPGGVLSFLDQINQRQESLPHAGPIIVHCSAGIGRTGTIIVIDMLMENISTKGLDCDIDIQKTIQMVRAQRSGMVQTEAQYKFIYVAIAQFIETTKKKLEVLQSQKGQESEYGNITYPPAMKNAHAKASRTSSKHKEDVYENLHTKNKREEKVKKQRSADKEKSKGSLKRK

Columns and labels:
[1] = target: T1, PVR expressed on 3T3 cells (human) (UniProt P15151); assay: flow cytometry on cells; PVR receptor competition: PVR-YFP/3T3 preincubated with DNAM-1-His, TIGIT-His, CD96-His (or TMIGD2-His control) at indicated concentrations at RT 40 min, then KIR2DL5-Ig 20 ug/mL on ice 45 min; PE anti-human IgG Fc; only the binder purified
T1 sequence: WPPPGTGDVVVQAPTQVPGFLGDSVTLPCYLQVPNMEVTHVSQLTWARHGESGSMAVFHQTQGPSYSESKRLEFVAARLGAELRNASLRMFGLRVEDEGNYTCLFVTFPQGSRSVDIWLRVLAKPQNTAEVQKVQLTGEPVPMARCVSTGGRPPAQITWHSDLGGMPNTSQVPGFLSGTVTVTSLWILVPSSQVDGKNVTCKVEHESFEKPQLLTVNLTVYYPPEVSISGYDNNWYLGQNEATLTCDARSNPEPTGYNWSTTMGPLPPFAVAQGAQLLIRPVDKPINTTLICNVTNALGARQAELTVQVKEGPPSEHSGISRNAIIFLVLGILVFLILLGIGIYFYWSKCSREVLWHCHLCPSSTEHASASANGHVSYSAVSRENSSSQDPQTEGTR

[2] = target: KIR2DL5 (KIR2DL5A*001) expressed on 3T3 cells (human) (UniProt Q8N109); assay: flow cytometry on cells; PVR-Ig, CD112-Ig or hIgG incubated with transduced 3T3 cells on ice for 45 min; detected with APC- or PE-conjugated anti-human IgG Fc; only the binder purified
[3] = target: KIR2DL5 Y298F (ITIM tyrosine mutant) transduced into primary NK cells (human) (UniProt Q8N109); assay: co-IP; primary NK cells transduced with WT or mutant KIR2DL5, treated with 1 mM pervanadate for 5 min; lysates immunoprecipitated with anti-KIR2DL5 antibodies and protein G Dynabeads; immunoblots for SHP-1 and SHP-2
[4] = target: KIR2DL5 Y328F (ITSM tyrosine mutant) transduced into primary NK cells (human) (UniProt Q8N109); assay: as above
[5] = target: WT KIR2DL5 (KIR2DL5A*001) transduced into primary NK cells (human) (UniProt Q8N109); assay: as above
[6] = target: KIR2DL4 expressed on 3T3 cells (human) (UniProt Q99706); assay: flow cytometry on cells; PVR-Ig, CD112-Ig or hIgG incubated with transduced 3T3 cells on ice for 45 min; detected with APC- or PE-conjugated anti-human IgG Fc; only the binder purified
[7] = target: KIR2DL5 D0 domain variant G97S expressed on 3T3 cells (human) (UniProt Q8N109); assay: as above
[8] = target: KIR2DL5 D0 domain variant P112S expressed on 3T3 cells (human) (UniProt Q8N109); assay: as above
[9] = target: KIR2DL5 D0 domain variant R52H expressed on 3T3 cells (human) (UniProt Q8N109); assay: as above
[10] = target: KIR2DL5 D0 domain variant T46S expressed on 3T3 cells (human) (UniProt Q8N109); assay: as above
[11] = target: KIR2DL5A*005 expressed on 3T3 cells (human) (UniProt Q8N109); assay: as above
[12] = target: KIR2DL5 (KIR2DL5A*001) expressed on 3T3 cells (human) (UniProt Q8N109); assay: flow cytometry on cells; reverse direction: PVR-Ig (20 ug/mL) preincubated with indicated concentrations of His-tagged protein, then stained KIR2DL5/3T3 on ice 45 min; PE anti-human IgG Fc; only the binder purified
[13] = target: KIR2DL5 (KIR2DL5A*001) expressed on 3T3 cells (human) (UniProt Q8N109); assay: flow cytometry on cells; mAb blocking assay: KIR2DL5/3T3 preincubated with serial concentrations of F8B30 or mIgG1 on ice 30 min, washed, then 20 ug/mL PVR-Ig on ice 45 min; APC anti-human IgG Fc; only the binder purified
[14] = target: KIR2DL5 (KIR2DL5A*001) expressed on 3T3 cells (human) (UniProt Q8N109); assay: intercellular conjugation assay (flow cytometry); as the conjugation assay, in the presence of the indicated anti-KIR2DL5 mAbs or mIgG1 (10 ug/mL)
[15] = target: KIR2DL5 (KIR2DL5A*001) expressed on 3T3 cells (human) (UniProt Q8N109); assay: intercellular conjugation assay (flow cytometry); eFluor 450-labelled PVR/3T3 or HHLA2/3T3 (2 x 10^5) incubated with PKH26-labelled KIR2DL5/3T3 or KIR3DL3/3T3 (2 x 10^5) at 37 C for 45 min
[16] = target: KIR3DL3 expressed on 3T3 cells (human) (UniProt Q8N743); assay: as above

- binding [2]: no binding
Molecule: CD112-Ig (from UniProt Q92692 32-360) (Fc fusion)

- binding [6]: no binding
- binding [2]: binds
- binding [7]: binds
- binding [8]: binds
- binding [9]: binds
- binding [10]: binds
- binding [11]: no binding
- binding [12]: binds
- binding [13]: binds
B1: PVR-Ig fusion protein (Fc fusion, UniProt P15151 21-343)
chain: WPPPGTGDVVVQAPTQVPGFLGDSVTLPCYLQVPNMEVTHVSQLTWARHGESGSMAVFHQTQGPSYSESKRLEFVAARLGAELRNASLRMFGLRVEDEGNYTCLFVTFPQGSRSVDIWLRVLAKPQNTAEVQKVQLTGEPVPMARCVSTGGRPPAQITWHSDLGGMPNTSQVPGFLSGTVTVTSLWILVPSSQVDGKNVTCKVEHESFEKPQLLTVNLTVYYPPEVSISGYDNNWYLGQNEATLTCDARSNPEPTGYNWSTTMGPLPPFAVAQGAQLLIRPVDKPINTTLICNVTNALGARQAELTVQVKEGPPSEHSGISRN

The next lines start with the molecule.

Molecule: KIR2DL5-Ig fusion protein (from UniProt Q8N109 22-238) (Fc fusion)
- binding [1]: binds

Molecule: Src homology 2–containing protein tyrosine phosphatase 1 (SHP-1) (from UniProt P29350 1-595) (enzyme)
- binding [3]: binds
- binding [4]: binds
- binding [5]: binds

B2: PVR expressed on 3T3 cells (ligand, UniProt P15151 21-417)
chain: WPPPGTGDVVVQAPTQVPGFLGDSVTLPCYLQVPNMEVTHVSQLTWARHGESGSMAVFHQTQGPSYSESKRLEFVAARLGAELRNASLRMFGLRVEDEGNYTCLFVTFPQGSRSVDIWLRVLAKPQNTAEVQKVQLTGEPVPMARCVSTGGRPPAQITWHSDLGGMPNTSQVPGFLSGTVTVTSLWILVPSSQVDGKNVTCKVEHESFEKPQLLTVNLTVYYPPEVSISGYDNNWYLGQNEATLTCDARSNPEPTGYNWSTTMGPLPPFAVAQGAQLLIRPVDKPINTTLICNVTNALGARQAELTVQVKEGPPSEHSGISRNAIIFLVLGILVFLILLGIGIYFYWSKCSREVLWHCHLCPSSTEHASASANGHVSYSAVSRENSSSQDPQTEGTR
- binding [14]: binds
- binding [15]: binds
- binding [16]: no binding

B3: HHLA2 expressed on 3T3 cells (ligand, UniProt Q9UM44 23-414)
chain: IFPLAFFIYVPMNEQIVIGRLDEDIILPSSFERGSEVVIHWKYQDSYKVHSYYKGSDHLESQDPRYANRTSLFYNEIQNGNASLFFRRVSLLDEGIYTCYVGTAIQVITNKVVLKVGVFLTPVMKYEKRNTNSFLICSVLSVYPRPIITWKMDNTPISENNMEETGSLDSFSINSPLNITGSNSSYECTIENSLLKQTWTGRWTMKDGLHKMQSEHVSLSCQPVNDYFSPNQDFKVTWSRMKSGTFSVLAYYLSSSQNTIINESRFSWNKELINQSDFSMNLMDLNLSDSGEYLCNISSDEYTLLTIHTVHVEPSQETASHNKGLWILVPSAILAAFLLIWSVKCCRAQLEARRSRHPADGAQQERCCVPPGERCPSAPDNGEENVPLSGKV
- binding [16]: binds
